# Experimental data published in PMC12820563, “FoxP3 forms a head-to-head dimer in vivo and stabilizes its multimerization on adjacent microsatellites”.
# Some of the results follow.
# Target: T1, MBP-FoxP1dN (Mus musculus, UniProt P58462 326-579)
# T1 sequence: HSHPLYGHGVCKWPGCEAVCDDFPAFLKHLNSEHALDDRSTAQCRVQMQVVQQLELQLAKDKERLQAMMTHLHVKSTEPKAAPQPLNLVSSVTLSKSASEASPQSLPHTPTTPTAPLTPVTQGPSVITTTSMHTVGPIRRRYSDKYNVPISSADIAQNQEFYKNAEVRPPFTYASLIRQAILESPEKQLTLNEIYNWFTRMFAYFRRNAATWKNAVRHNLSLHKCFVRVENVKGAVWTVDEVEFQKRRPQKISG
# Experiment: PD-seq (MBP pull-down with sequencing); 20 mM Tris-HCl pH 7.5, 100 mM NaCl, 1.5 mM MgCl2, 0.4 uM protein, 0.1 uM dsDNA library, 30 min, room temperature, amylose pull-down; high values mean tight binding
# Conditions: protein: recombinant; tags: His6-MBP; chain copies: 2; dsDNA, one strand shown
# In short: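 The N-terminus-lacking fragment of mouse FoxP3 or FoxP1 carried a His6-MBP tag and was expressed in E. coli. At 0.4 µM it was incubated with 0.1 µM Klenow-filled degenerate double-stranded DNA library for 30 min at room temperature in Tris pH 7.5 buffer with NaCl and MgCl2, and complexes were caught on amylose resin, washed three times, released with proteinase K, PCR-barcoded and Illumina-sequenced. Binding is reads-per-million enrichment of pull-down over input with replicates pooled.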
row,Sequence,binding signal
1,GATGATTGTTCTCCCAGCTGATGAATTCTCGGGTTCGAGTAAACAAATTTTCCTAATCTTTCTGTTCAAGCGCCATCTAC,0.863 RPM ratio (pull-down/input)
2,GATGATTGTTCTCCCAGCTGATGAATTTATATTTTCGAGTAAACAAATTTTCCTAATCTTTCTGTTCAAGCGCCATCTAC,2.37 RPM ratio (pull-down/input)
3,GATGATTGTTCTCCCAGCTGATGAATTGTGATTGTCGAGTAAACAAATTTTCCTAATCTTTCTGTTCAAGCGCCATCTAC,1.67 RPM ratio (pull-down/input)
4,GATGATTGTTCTCCCAGCTGATGAATTTACACAATCGAGTAAACAAATTTTCCTAATCTTTCTGTTCAAGCGCCATCTAC,1.87 RPM ratio (pull-down/input)
5,GATGATTGTTCTCCCAGCTGATGAATTGTCCGCTTCGAGTAAACAAATTTTCCTAATCTTTCTGTTCAAGCGCCATCTAC,0.894 RPM ratio (pull-down/input)
6,GATGATTGTTCTCCCAGCTGATGAATTGACTTTCTCGAGTAAACAAATTTTCCTAATCTTTCTGTTCAAGCGCCATCTAC,0.98 RPM ratio (pull-down/input)
7,GATGATTGTTCTCCCAGCTGATGAATTCTGTACCTCGAGTAAACAAATTTTCCTAATCTTTCTGTTCAAGCGCCATCTAC,0.846 RPM ratio (pull-down/input)
8,GATGATTGTTCTCCCAGCTGATGAATTGTGGCCGTCGAGTAAACAAATTTTCCTAATCTTTCTGTTCAAGCGCCATCTAC,1 RPM ratio (pull-down/input)
9,GATGATTGTTCTCCCAGCTGATGAATTACTCAAATCGAGTAAACAAATTTTCCTAATCTTTCTGTTCAAGCGCCATCTAC,1.24 RPM ratio (pull-down/input)
10,GATGATTGTTCTCCCAGCTGATGAATTGGGTTGGTCGAGTAAACAAATTTTCCTAATCTTTCTGTTCAAGCGCCATCTAC,0.82 RPM ratio (pull-down/input)
11,GATGATTGTTCTCCCAGCTGATGAATTATCGCTTTCGAGTAAACAAATTTTCCTAATCTTTCTGTTCAAGCGCCATCTAC,1.15 RPM ratio (pull-down/input)
12,GATGATTGTTCTCCCAGCTGATGAATTACGACGGTCGAGTAAACAAATTTTCCTAATCTTTCTGTTCAAGCGCCATCTAC,0.984 RPM ratio (pull-down/input)
13,GATGATTGTTCTCCCAGCTGATGAATTGACGGATTCGAGTAAACAAATTTTCCTAATCTTTCTGTTCAAGCGCCATCTAC,1.13 RPM ratio (pull-down/input)
14,GATGATTGTTCTCCCAGCTGATGAATTTCTGCGTTCGAGTAAACAAATTTTCCTAATCTTTCTGTTCAAGCGCCATCTAC,0.979 RPM ratio (pull-down/input)
15,GATGATTGTTCTCCCAGCTGATGAATTTTCCCTCTCGAGTAAACAAATTTTCCTAATCTTTCTGTTCAAGCGCCATCTAC,0.877 RPM ratio (pull-down/input)
16,GATGATTGTTCTCCCAGCTGATGAATTCTTGCAATCGAGTAAACAAATTTTCCTAATCTTTCTGTTCAAGCGCCATCTAC,1.16 RPM ratio (pull-down/input)
17,GATGATTGTTCTCCCAGCTGATGAATTAAGTACCTCGAGTAAACAAATTTTCCTAATCTTTCTGTTCAAGCGCCATCTAC,0.928 RPM ratio (pull-down/input)
18,GATGATTGTTCTCCCAGCTGATGAATTTGTGGCATCGAGTAAACAAATTTTCCTAATCTTTCTGTTCAAGCGCCATCTAC,1.3 RPM ratio (pull-down/input)
19,GATGATTGTTCTCCCAGCTGATGAATTAGTGACATCGAGTAAACAAATTTTCCTAATCTTTCTGTTCAAGCGCCATCTAC,1.19 RPM ratio (pull-down/input)
20,GATGATTGTTCTCCCAGCTGATGAATTAATGGTTTCGAGTAAACAAATTTTCCTAATCTTTCTGTTCAAGCGCCATCTAC,1.05 RPM ratio (pull-down/input)

row,Sequence,binding signal
1,GATGATTGTTCTCCCAGCTGATGAATTCCGACTGTCGAGTAAACAAATTTTCCTAATCTTTCTGTTCAAGCGCCATCTAC,0.861 RPM ratio (pull-down/input)
2,GATGATTGTTCTCCCAGCTGATGAATTATTCCCATCGAGTAAACAAATTTTCCTAATCTTTCTGTTCAAGCGCCATCTAC,1.07 RPM ratio (pull-down/input)
3,GATGATTGTTCTCCCAGCTGATGAATTAGTTAACTCGAGTAAACAAATTTTCCTAATCTTTCTGTTCAAGCGCCATCTAC,0.93 RPM ratio (pull-down/input)
4,GATGATTGTTCTCCCAGCTGATGAATTGTTTGAATCGAGTAAACAAATTTTCCTAATCTTTCTGTTCAAGCGCCATCTAC,1.35 RPM ratio (pull-down/input)
5,GATGATTGTTCTCCCAGCTGATGAATTAGGGAGCTCGAGTAAACAAATTTTCCTAATCTTTCTGTTCAAGCGCCATCTAC,0.829 RPM ratio (pull-down/input)
6,GATGATTGTTCTCCCAGCTGATGAATTCGGGGTCTCGAGTAAACAAATTTTCCTAATCTTTCTGTTCAAGCGCCATCTAC,0.803 RPM ratio (pull-down/input)
7,GATGATTGTTCTCCCAGCTGATGAATTCAAACGATCGAGTAAACAAATTTTCCTAATCTTTCTGTTCAAGCGCCATCTAC,0.892 RPM ratio (pull-down/input)
8,GATGATTGTTCTCCCAGCTGATGAATTCTTTGACTCGAGTAAACAAATTTTCCTAATCTTTCTGTTCAAGCGCCATCTAC,0.864 RPM ratio (pull-down/input)
9,GATGATTGTTCTCCCAGCTGATGAATTGGATAGGTCGAGTAAACAAATTTTCCTAATCTTTCTGTTCAAGCGCCATCTAC,0.763 RPM ratio (pull-down/input)
10,GATGATTGTTCTCCCAGCTGATGAATTAGCAGTTTCGAGTAAACAAATTTTCCTAATCTTTCTGTTCAAGCGCCATCTAC,0.913 RPM ratio (pull-down/input)
11,GATGATTGTTCTCCCAGCTGATGAATTAAGCATGTCGAGTAAACAAATTTTCCTAATCTTTCTGTTCAAGCGCCATCTAC,0.983 RPM ratio (pull-down/input)
12,GATGATTGTTCTCCCAGCTGATGAATTTATGATGTCGAGTAAACAAATTTTCCTAATCTTTCTGTTCAAGCGCCATCTAC,1.51 RPM ratio (pull-down/input)
13,GATGATTGTTCTCCCAGCTGATGAATTCCTCCTATCGAGTAAACAAATTTTCCTAATCTTTCTGTTCAAGCGCCATCTAC,0.878 RPM ratio (pull-down/input)
14,GATGATTGTTCTCCCAGCTGATGAATTCTGAACGTCGAGTAAACAAATTTTCCTAATCTTTCTGTTCAAGCGCCATCTAC,0.807 RPM ratio (pull-down/input)
15,GATGATTGTTCTCCCAGCTGATGAATTGTCATCCTCGAGTAAACAAATTTTCCTAATCTTTCTGTTCAAGCGCCATCTAC,1.11 RPM ratio (pull-down/input)
16,GATGATTGTTCTCCCAGCTGATGAATTACCTCGCTCGAGTAAACAAATTTTCCTAATCTTTCTGTTCAAGCGCCATCTAC,0.926 RPM ratio (pull-down/input)
17,GATGATTGTTCTCCCAGCTGATGAATTGATGAAATCGAGTAAACAAATTTTCCTAATCTTTCTGTTCAAGCGCCATCTAC,1.16 RPM ratio (pull-down/input)
18,GATGATTGTTCTCCCAGCTGATGAATTAACGCCCTCGAGTAAACAAATTTTCCTAATCTTTCTGTTCAAGCGCCATCTAC,0.873 RPM ratio (pull-down/input)
19,GATGATTGTTCTCCCAGCTGATGAATTGCCCGGTTCGAGTAAACAAATTTTCCTAATCTTTCTGTTCAAGCGCCATCTAC,0.904 RPM ratio (pull-down/input)
20,GATGATTGTTCTCCCAGCTGATGAATTGGATACCTCGAGTAAACAAATTTTCCTAATCTTTCTGTTCAAGCGCCATCTAC,0.93 RPM ratio (pull-down/input)
